Results reported in the supplement of paper PMC4723716.
± gives the uncertainty stated by the source. Over roughly 9,900 compounds, “viability index relative to DMSO control” has its median near 1; the lowest 2% begin near 0.85. This is one part of the list.

Test system: Plasmodium falciparum NF54 stage V gametocytes
Test: viability index relative to DMSO control (fraction); higher = less gametocyte killing
Conditions: 2.5 µM, incubation time: 72 h
Procedure, shortened: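 Stage V gametocytes of P. falciparum NF54 were held in serum-free screening medium at 0.75% gametocytemia and 1.25% hematocrit, 10 µl per well of a 1,536-well plate, and exposed to compound at 2.5 µM for 72 hr at 37°C under low oxygen. A 3 µl mix of 2.5 µM MitoTracker Red CMXRos with 0.13% saponin was then added for one to two hours, after which one field per well was imaged and red particles of 20–70 µm2 were counted. The viability index equals this count divided by the plate mean from wells given solvent alone.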

[1] = library set: Broad Institute DOS

Row | Compound | viability index [1] | viability index (library set: Broad Institute Blood Stage)
1 | CS(=O)(=O)N1[C@@H]2Cn3c(ccc(-c4cccc(F)c4)c3=O)[C@H]1[C@@H](C(=O)N1CCCCC1)[C@@H]2CO | 0.966 ± 0.057 | 
2 | C/C=C/c1ccc([C@@H]2[C@H](CO)N(CC3CC3)C23CN(C(=O)c2ccc4c(c2)OCO4)C3)cc1 | 1.11 ± 0.062 | 
3 | O=C(C[C@@H]1CC[C@@H]2[C@H](COC[C@@H](O)CN2C(=O)c2cnccn2)O1)NCc1ccc(Cl)cc1 | 0.981 ± 0.017 | 
4 | COc1ccc(C#Cc2ccc([C@@H]3[C@@H](CO)N4C(=O)CN(C(=O)c5ccc(F)cc5)C[C@H]34)cc2)cc1 | 1.076 ± 0.0071 | 
5 | CN1C(=O)c2cc(NS(=O)(=O)c3cccc(F)c3)ccc2OC[C@H]2O[C@@H](CC(=O)NCCN3CCCCC3)CC[C@H]21 | 0.924 ± 0.052 | 
6 | Cc1noc(C)c1S(=O)(=O)N(C)C[C@H]1Oc2c(NS(=O)(=O)c3cn(C)cn3)cccc2C(=O)N([C@@H](C)CO)C[C@@H]1C | 1.029 ± 0.0067 | 
7 | COc1ccc2c3c([nH]c2c1)[C@H](CO)N(Cc1ccncc1)C[C@]31CCN(CC2CCOCC2)CC1 | 0.974 ± 0.033 | 
8 | C(=C\c1ccc([C@@H]2[C@@H]3CN(Cc4nccs4)C[C@H]2N3)cc1)/c1ccccc1 | 1.02 ± 0.065 | 
9 | Cc1noc(C)c1S(=O)(=O)Nc1ccc2c(c1)C(=O)N([C@@H](C)CO)C[C@@H](C)[C@@H](CN(C)Cc1ccc(C(=O)O)cc1)OCCCC[C@H](C)O2 | 1.14 ± 0.046 | 
10 | C[C@@H]1CN([C@H](C)CO)C(=O)c2ccccc2-c2ccccc2CO[C@@H]1CN(C)C(=O)CCC(F)(F)F | 0.935 ± 0.14 | 
11 | COc1cccc(C#Cc2ccc3c(c2)[C@@H]2[C@@H](CCN2C(=O)c2ccccc2F)[C@H](CO)N3)c1 | 1.05 ± 0.081 | 
12 | C[C@H](CO)N1C[C@H](C)[C@@H](CN(C)CC2CCCCC2)OCc2cnnn2CCCC1=O | 1.08 ± 0.019 | 
13 | CCCC(=O)Nc1ccc2c(c1)C(=O)N(C)[C@@H]1CC[C@H](CC(=O)N3CCCCC3)O[C@H]1CO2 | 1.121 ± 0.0028 | 
14 | CN1C(=O)c2cc(NC(=O)c3cscn3)ccc2OC[C@@H]2O[C@H](CC(=O)N3CCOCC3)CC[C@H]21 | 1.15 ± 0.03 | 
15 | C[C@H](CO)N1C[C@H](C)[C@@H](CN(C)Cc2cccc(C(F)(F)F)c2)OCc2cnnn2CCCC1=O | 0.982 ± 0.056 | 
16 | COc1cccc(S(=O)(=O)Nc2ccc3c(c2)C(=O)N(C)C[C@H](OC)[C@@H](C)CN(Cc2ccccc2F)[C@H](C)CO3)c1 | 0.99 ± 0.042 | 
17 | CC(C)C#Cc1ccc([C@@H]2[C@@H](CO)N3C(=O)CN(S(=O)(=O)c4ccccc4)C[C@@H]23)cc1 | 0.986 ± 0.0062 | 
18 | COc1ccc2c3c([C@H](CO)N(C[C@]33CN(C3)C(=O)c3cccc(F)c3)C(=O)c3cccc(F)c3)n(C)c2c1 | 1.04 ± 0.047 | 
19 | C[C@@H]1CN([C@@H](C)CO)C(=O)c2cc(NC(=O)C3CCCCC3)ccc2O[C@H]1CN(C)C(=O)Nc1ccc(C(F)(F)F)cc1 | 1.03 ± 0.11 | 
20 | O=C(C1CCOCC1)N1CC2(C1)[C@@H](c1ccccc1)[C@@H](CO)N2C(=O)CC1CC1 | 1.017 ± 0.01 | 
21 | COc1ccc(S(=O)(=O)Nc2cccc3c2O[C@H](CN(C)CC2CCCCC2)[C@H](C)CN([C@H](C)CO)C3=O)cc1 | 1.01 ± 0.057 | 
22 | C[C@H]1CN([C@@H](C)CO)S(=O)(=O)c2ccc(-c3cccc(C#N)c3)cc2O[C@H]1CN(C)C(=O)c1ccccc1 | 0.982 ± 0.012 | 
23 | CO[C@@H]1CN(C)C(=O)c2ccc(NC(=O)c3ccno3)cc2OC[C@H](C)N(S(C)(=O)=O)C[C@@H]1C | 1.078 ± 0.007 | 
24 | C[C@H]1CN([C@@H](C)CO)S(=O)(=O)c2ccc(C#Cc3ccccc3F)cc2O[C@H]1CN(C)C(=O)Cc1cccnc1 | 0.905 ± 0.06 | 

Row | Compound | viability index [1] | viability index (library set: Broad Institute Blood Stage)
25 | COc1cccc(S(=O)(=O)N[C@H]2CC[C@@H](CC(=O)NC3Cc4ccccc4C3)O[C@@H]2CO)c1 | 0.999 ± 0.044 | 
26 | C[C@@H]1CN([C@H](C)CO)C(=O)c2ccccc2-c2ccccc2CO[C@H]1CN(C)C(=O)[C@H]1CCCN1C | 1.06 ± 0.14 | 
27 | O=C(Nc1ccccc1F)N1C[C@@H]2[C@H](c3ccccc31)[C@@H](CO)N2C(=O)Cc1cccnc1 | 1.1 ± 0.068 | 
28 | CNC[C@@H]1Oc2c(N)cccc2C(=O)N([C@@H](C)CO)C[C@@H]1C | 1.04 ± 0.084 | 
29 | C[C@@H]1CN([C@H](C)CO)C(=O)CCCn2cc(nn2)CO[C@@H]1CN(C)C(=O)NC1CCCCC1 | 0.984 ± 0.053 | 
30 | COCC(=O)N1CC(=O)N2[C@@H](CO)[C@H](c3ccc(-c4ccncc4)cc3)[C@@H]2C1 | 1.04 ± 0.056 | 
31 | O=C(c1cccnc1)N1CC2(C1)[C@H](c1ccccc1)[C@@H](CO)N2Cc1ccc(Cl)cc1 | 1.11 ± 0.11 | 
32 | C[C@H](CO)N1C[C@H](C)[C@@H](CN(C)Cc2ccncc2)Oc2c(cccc2N(C)C)C1=O | 1.05 ± 0.1 | 
33 | C[C@H](O)C#Cc1ccc([C@@H]2[C@H](CO)N3CCCCN(C(=O)c4ccc5c(c4)OCO5)C[C@@H]23)cc1 | 1.02 ± 0.046 | 
34 | CCCNC(=O)Nc1ccc2c(c1)OC[C@H](C)N(C(=O)C1CCOCC1)C[C@H](C)[C@@H](OC)CN(C)C2=O | 1.06 ± 0.055 | 
35 | O=C(C[C@@H]1CC[C@H]2[C@@H](COC[C@@H](O)CN2C(=O)c2cnccn2)O1)NCc1ccc(Cl)cc1 | 1.01 ± 0.13 | 
36 | C[C@@H]1CN([C@H](C)CO)C(=O)Cc2cc(NS(=O)(=O)c3ccc(Cl)cc3)ccc2O[C@H]1CN(C)C(=O)Nc1ccc(C(F)(F)F)cc1 | 1.02 ± 0.054 | 
37 | COCCN(C[C@H]1[C@H](c2ccccc2)[C@@H](CO)N1C(=O)C1CC1)C(C)=O | 1.02 ± 0.029 | 
38 | O=C1NCCOCc2cn(nn2)CC[C@@H]1Cc1ccc(F)cc1 | 1.04 ± 0.1 | 
39 | COc1ccc2c3c([C@@H](CO)N(Cc4cc(OC)cc(OC)c4)C[C@]33CCN(CC3)C(=O)Nc3c(C)noc3C)n(C)c2c1 | 1.07 ± 0.045 | 
40 | COc1ccccc1C#Cc1ccc([C@@H]2[C@H](C#N)N(C(=O)C3CCC3)[C@H]2CO)cc1 | 1.03 ± 0.09 | 
41 | O=C(Nc1ccc2c(c1)[C@@H]1C[C@H](CC(=O)N3CCc4ccccc4C3)O[C@@H](CO)[C@@H]1O2)c1ccc2c(c1)OCO2 | 0.991 ± 0.038 | 
42 | C[C@H](NC(=O)C[C@H]1C=C[C@@H](NS(=O)(=O)c2cccc(F)c2)[C@H](CO)O1)c1ccccc1 | 1.12 ± 0.15 | 
43 | O=C(Nc1cc(F)ccc1F)N1CCCCN2[C@H](C1)[C@H](c1ccc(C3=CCCCC3)cc1)[C@@H]2CO | 1.04 ± 0.075 | 
44 | O=C1CNC[C@@H]2[C@H](c3ccc(C#Cc4cccnc4)cc3)[C@H](CO)N12 | 0.992 ± 0.022 | 
45 | CCNC(=O)[C@@H]1[C@@H](CO)[C@@H]2Cn3c(ccc(-c4cccc(F)c4)c3=O)[C@@H]2N1C(=O)Cc1cccnc1 | 1.093 ± 0.0084 | 
46 | O=C(C1CCOCC1)N1C[C@H]2[C@@H](c3ccccc31)[C@H](CO)N2C(=O)Nc1ccccc1F | 1.048 ± 0.0035 | 
47 | C/C=C/c1cnc2c(c1)C(=O)N([C@H](C)CO)C[C@H](C)[C@@H](CN(C)CC1CCOCC1)O2 | 1 ± 0.044 | 
48 | CO[C@@H]1CN(C)C(=O)c2cc(NS(C)(=O)=O)ccc2OC[C@@H](C)N(C(=O)C2CCOCC2)C[C@@H]1C | 1.17 ± 0.07 | 

Row | Compound | viability index [1] | viability index (library set: Broad Institute Blood Stage)
49 | COc1ccc2c3c([C@H](CO)NC[C@]33CCN(CC3)C(=O)Nc3ccc(F)cc3F)n(C)c2c1 | 0.9976 ± 0.0076 | 
50 | O=C(Nc1cc(F)ccc1F)N1CCCCN2[C@H](CO)[C@H](c3ccc(C4=CCCCC4)cc3)[C@@H]2C1 | 0.935 ± 0.14 | 
51 | Cc1noc(C)c1NC(=O)Nc1ccc2c(c1)C(=O)N(C)[C@H]1CC[C@H](CC(=O)N[C@@H]3CCN(Cc4ccccc4)C3)O[C@H]1CO2 | 1.11 ± 0.069 | 
52 | O=C(CC1CC1)NC[C@H]1N[C@H](CO)[C@@H]1c1ccc(-c2ccc(F)cc2)cc1 | 1.02 ± 0.044 | 
53 | C/C=C/c1ccccc1[C@H]1[C@@H](C#N)N(C(C)=O)[C@@H]1CO | 1.1 ± 0.19 | 
54 | COc1ccccc1C#Cc1ccc([C@H]2[C@@H](CO)N(C(=O)C3CC3)[C@H]2C#N)cc1 |  | 0.849 ± 0.047
55 | C[C@@H]1CN([C@@H](C)CO)C(=O)c2cc(NC(=O)NC3CCCCC3)ccc2O[C@@H]1CN(C)S(C)(=O)=O | 0.93 ± 0.026 | 
56 | C[C@H]1CN([C@@H](C)CO)C(=O)Cc2cc(NS(=O)(=O)c3ccc(F)cc3)ccc2O[C@@H]1CN(C)Cc1ccncc1 | 0.991 ± 0.029 | 
57 | COc1ccc(NC(=O)N(C)C[C@H]2OCCCC[C@@H](C)Oc3ccc(NC(=O)c4ccncc4)cc3C(=O)N([C@H](C)CO)C[C@@H]2C)cc1 | 1.1 ± 0.045 | 
58 | O=C(Nc1ccccc1)N1CC(=O)N2[C@@H](CO)[C@H](c3ccc(C#CC4CCCCC4)cc3)[C@@H]2C1 | 1.03 ± 0.035 | 
59 | COc1ccc(NC(=O)N[C@@H]2CC[C@@H](CCNC(=O)CN3CCOCC3)O[C@@H]2CO)cc1 | 1.06 ± 0.064 | 
60 | COCC(=O)N1[C@H](C#N)[C@@H](c2ccc(C#Cc3ccccc3F)cc2)[C@H]1CO | 1.04 ± 0.053 | 
61 | Cc1ccccc1-c1ccc([C@@H]2[C@@H]3CN(C(=O)c4ccc(F)cc4)C[C@H]2N3)cc1 | 0.938 ± 0.019 | 
62 | C[C@H](CO)N1C[C@H](C)[C@H](CN(C)S(=O)(=O)c2ccc(Oc3ccccc3)nc2)OCc2cnnn2CCCC1=O | 1.03 ± 0.022 | 
63 | CCC(=O)N1Cc2cc(C(=O)NCCOC)nc(-c3cccc(-c4ccc(C#N)cc4)c3)c2[C@H]1CCO | 1.08 ± 0.077 | 
64 | C[C@@H]1CN([C@H](C)CO)C(=O)c2cccc(NC(=O)Nc3ccc4c(c3)OCO4)c2O[C@H]1CN(C)S(C)(=O)=O | 0.954 ± 0.09 | 
65 | N#C[C@H]1[C@@H](c2ccccc2-c2ccccc2)[C@@H](CO)N1C(=O)Cc1ccncc1 | 1.1 ± 0.17 | 
66 | O=C(c1ccccn1)N1CC[C@@H]2[C@H]1c1cc(C#Cc3cccnc3)ccc1N[C@@H]2CO | 1.03 ± 0.021 | 
67 | C[C@H]1CCCCO[C@H](CN(C)S(=O)(=O)c2ccccc2)[C@@H](C)CN([C@@H](C)CO)C(=O)c2cc(NC(=O)Nc3ccc4c(c3)OCO4)ccc2O1 | 0.891 ± 0.028 | 
68 | O=C(Cc1ccncc1)N1CC[C@@H]2[C@H]1c1cc(-c3ccccc3F)ccc1N[C@@H]2CO | 1.03 ± 0.046 | 
69 | O=C(Nc1ccc2c(c1)[C@H]1C[C@@H](CC(=O)N3CCc4ccccc4C3)O[C@@H](CO)[C@H]1O2)c1ccc2c(c1)OCO2 | 1.08 ± 0.12 | 
70 | CCCC#Cc1ccc([C@@H]2[C@@H](CO)N3C(=O)CN(C(=O)Nc4cccc(F)c4)C[C@H]23)cc1 | 1.056 ± 0.003 | 
